Data from PubChem BioAssay AID686979 (National Center for Advancing Translational Sciences (NCATS), 2013).
About 50,000 (12%) of roughly 420,000 compounds were called active. The inconclusive results got no clear call from the source; some entries with a clear call stand among them for comparison. Calls come from the whole dose curve; as a rule, active = well fitted inhibition curve with a large enough effect; inconclusive = small, poorly fitted or top-dose-only effect; inactive = flat fitted curve, though single readings scatter. Potencies of inconclusive entries are left out as doubtful fits.

assay: qHTS for Inhibitors of human tyrosyl-DNA phosphodiesterase 1 (TDP1): qHTS in cells in presence of CPT; conditions: chicken DT40 Tdp1-/-;hTDP1 cells + 20 nM CPT, ATP luminescence, 48 h; series mostly up to 46.2 µM; note: nearly all actives have a fitted effect of over 55% in size
How it was run: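 Chicken DT40 Tdp1-/- cells complemented with human TDP1, 400 cells/well, exposed to compounds plus 20 nM camptothecin for at least 48 h at 37 C; viability read as ATP content by CellTiter-Glo luminescence.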
Potency is the fitted concentration of half-maximal effect; tags give direction and shape of the fitted curve.

SMILES	Potency
C/C(=N\NC(=O)c1cc(-c2ccc(C)s2)[nH]n1)c1ccncc1	inconclusive [inhibitor, partial curve]
CCCN1C(=O)c2ccccc2NC1c1ccc(OC)c(COc2ccc([N+](=O)[O-])c(C)c2)c1 (stereo not drawn)	inconclusive [inhibitor, single point]
CC(C)OCCCNC(=O)C1CCC(CNS(=O)(=O)c2ccccc2)CC1 (stereo not drawn)	inactive
CC(NC(=O)c1ccc(N)cc1)c1ccccc1 (stereo not drawn)	inactive
CCCC1CCC(c2ccc(C(=O)NN)cc2)CC1 (stereo not drawn)	active: 29.1 µM
N#C/C(=C\c1c(N(Cc2ccccc2)Cc2ccccc2)nc2ccccn2c1=O)C(N)=O	inconclusive [inhibitor, single point]
COc1cc(OC)cc(-c2nc(-c3ccccc3OC)no2)c1	inconclusive [inhibitor, single point]
Fc1ccc(-c2nc3ccc(Br)cn3c2Cc2cccc(F)c2)cc1	inactive
O=C(CNC(=O)c1ccc(S(=O)(=O)N2CCCC2)cc1)N/N=C/c1c(Cl)cccc1Cl	inconclusive [inhibitor, single point]
O=C(CCc1nc(CN2CCN(S(=O)(=O)c3ccc(F)cc3)CC2)no1)N1CCCCC1	inactive
O=C(C1CCCO1)N1CCC(c2nc3ccccc3[nH]2)CC1 (stereo not drawn)	inconclusive [inhibitor, partial curve]
CC(=O)Nc1ccc(NC(=O)CSc2n[nH]c(-c3cccs3)n2)cc1	inactive
O=C1c2[nH]nc(-c3ccccc3O)c2C(c2ccc(Cl)cc2)N1Cc1ccco1 (stereo not drawn)	active: 16.4 µM
CCOC(=O)c1[nH]c2ccc(F)cc2c1NC(=O)CN1CCN(C/C=C/c2ccccc2)CC1	inconclusive [inhibitor, single point]
CC1(C)Cc2ccccc2-c2nnc(SCc3ccccc3)n21	inconclusive [inhibitor, single point]
O=c1nc2sc3ccccc3n2c(=O)n1-c1ccc(Cl)c(Cl)c1	inconclusive [inhibitor, single point]
COc1ccccc1-c1nc2ccccc2nc1-c1ccccc1OC	inconclusive [inhibitor, single point]
O=C(CN1C(=O)c2ccccc2C1=O)NCC(=O)OCC(=O)c1ccc(Cl)cc1	inactive
COc1cccc(CNc2nc3cc(C(C)=C(C)C)sc3c(=O)n2C)c1	active: 18.4 µM
COc1ccccc1NC(=O)c1c(Nc2ccccc2F)sc(C(=O)Nc2cccc(Cl)c2)c1N	inconclusive [inhibitor, single point]
COc1cc(C=C(OC(C)=O)c2ccc3c(c2)OCO3)cc(OC)c1OC	inconclusive [inhibitor, single point]
O=C(Cn1cnc2c(cnn2-c2ccccc2)c1=O)N1CCN(c2ccc(F)cc2)CC1	inconclusive [inhibitor, single point]

SMILES	Potency
Cc1cccc(C(=O)OC(C)CN2C(C)CCCC2C)c1 (stereo not drawn)	inactive
Cc1ccc2nc(N3CCN(Cc4nnnn4Cc4ccccc4)CC3)c(C#N)cc2c1	inconclusive [inhibitor, single point]
c1ccc2c(NC3CCCC3)nnc(NC3CCCC3)c2c1	inconclusive [inhibitor, single point]
CCN(CC)C(=O)CSc1nc2ccc(NC(=O)CSc3nnc(N)s3)cc2s1	inconclusive [inhibitor, single point]
CC(=O)Nc1ccc(S(=O)(=O)N2CCC3(CC2)CC(=O)c2ccccc2O3)cc1	inconclusive [inhibitor, partial curve, poor fit]
COc1ccccc1NC(=O)Cn1c(=O)n(-c2cccc(C(C)=O)c2)c(=O)c2c3c(sc21)CN(C(C)=O)CC3	inactive
Cc1cc(C)cc(NS(=O)(=O)c2c(C(=O)N3CCCCCC3)c(C)n(C)c2C)c1	inconclusive [inhibitor, single point]
O=C(c1ccc(C(F)(F)F)cc1)N1CCC(=O)N(C(COCc2ccccc2)Cc2ccccc2)CC1 (stereo not drawn)	active: 20.6 µM
Cc1cc(C)cc(OCC(=O)NNC(=O)c2cc3ccccc3oc2=O)c1	inconclusive [inhibitor, partial curve]
Cc1ccc(Nc2nc3c([nH]2)c(=O)n(C)c(=O)n3C)cc1	inconclusive [inhibitor, single point]
COc1cc2oc(=O)cc(-c3ccc(-c4ccc(O)cc4)cc3)c2c(OC)c1OC	inconclusive [inhibitor, single point]
Cc1cc(C)cc(OCC(=O)Nc2cnn(CCCC(=O)O)c2)c1	inactive
O=C1NC[C@@H](CCCCN2CCN(CCC3CCCCC3)C(=O)C2=O)N(CC2CCCCC2)C1=O	inactive
COC(=O)C1=C(O)/C(=C\c2cc(C)n(-c3ccc(F)cc3)c2C)N=C1C	inconclusive [inhibitor, single point]
COc1ccccc1C(=O)COC(=O)c1ccccc1OCC(=O)Nc1ccc(SC(F)F)cc1	inconclusive [inhibitor, single point]
O=C(N/N=C/c1cn(Cc2ccccc2)c2ccccc12)c1cccnc1	inconclusive [inhibitor, single point]
CC1Cc2ccccc2N1CC(=O)Nc1cc(S(=O)(=O)N2CCOCC2)ccc1Cl (stereo not drawn)	inconclusive [inhibitor, single point]
O=C(CCC1N=C2c3ccccc3N=C(SCC(=O)Nc3ccccc3F)N2C1=O)NCc1ccccc1 (stereo not drawn)	inconclusive [inhibitor, single point]
CCOC(=O)C1CCCN(C(=O)c2cc3ncc(Br)cn3n2)C1 (stereo not drawn)	inactive
CC(C)Cn1c(SCC(=O)NCc2ccc(Cl)cc2)nnc1-c1cccc(S(=O)(=O)N2CCOCC2)c1	inconclusive [inhibitor, single point]
O=C(O)c1ccc(C2CCCCC2)cn1	inconclusive [inhibitor, single point]
